For one compound, Potency results are on record in PubChem BioAssay AID2676 (National Center for Advancing Translational Sciences (NCATS), 2010).

Out of some 370,000 compounds screened, about 1,100 (0.3%) were called active. Inconclusive results (about 1%) are left out. Calls follow the shape of the dose curve; as a rule, active = well fitted activation curve with a large enough effect; inconclusive = small, poorly fitted or top-dose-only effect; inactive = flat fitted curve, though single readings scatter. A structure can be active in one record and inactive in another. Not every entry of the source has a single result; some have several. This list holds those alone. The source may hold further records. The values listed for one entry repeat one measurement in other runs, samples, wells, individuals or studies. Marks in square brackets tell the records apart. The letters are not those of the source and start again with each entry.
Potency is read from the fitted curve at half-maximal effect.

The experiment addresses Relaxin receptor 1 (Homo sapiens) (UniProt Q9HBX9). Put plainly: qHTS Assay for Agonists of the Relaxin Receptor RXFP1. Also: nearly all actives have a fitted effect of over 60% in size. Conditions: HEK293T-RXFP1 cAMP TR-FRET, 30 min; series mostly up to 57.5 µM. From the text: NIH Chemical Genomics Center [NCGC] NIH Molecular Libraries Probe Production Centers Network [MLPCN] MLPCN Grant: R03 MH085705-01A1 Assay Submitter (PI): Alexander Agoulnik NCGC Assay Overview: The relaxin hormone is involved in the variety of biological functions in normal tissues and diseases. The role of relaxin is well-established in female reproduction and parturition, mammary gland and endometrial development, maintenance of myometrial quiescence during pregnancy. Relaxin signaling through its G protein-coupled receptor (GPCR) RXFP1 results in ECM remodeling through regulation of collagen deposition, cell invasiveness, proliferation and overall tissue homeostasis. […] RXFP1 activation was assayed by changes in cAMP levels as detected with a time-resolved fluorescence energy transfer (TR-FRET) cAMP detection kit.
Chain of UniProt Q9HBX9 (Q9HBX9 whole entry, looked up): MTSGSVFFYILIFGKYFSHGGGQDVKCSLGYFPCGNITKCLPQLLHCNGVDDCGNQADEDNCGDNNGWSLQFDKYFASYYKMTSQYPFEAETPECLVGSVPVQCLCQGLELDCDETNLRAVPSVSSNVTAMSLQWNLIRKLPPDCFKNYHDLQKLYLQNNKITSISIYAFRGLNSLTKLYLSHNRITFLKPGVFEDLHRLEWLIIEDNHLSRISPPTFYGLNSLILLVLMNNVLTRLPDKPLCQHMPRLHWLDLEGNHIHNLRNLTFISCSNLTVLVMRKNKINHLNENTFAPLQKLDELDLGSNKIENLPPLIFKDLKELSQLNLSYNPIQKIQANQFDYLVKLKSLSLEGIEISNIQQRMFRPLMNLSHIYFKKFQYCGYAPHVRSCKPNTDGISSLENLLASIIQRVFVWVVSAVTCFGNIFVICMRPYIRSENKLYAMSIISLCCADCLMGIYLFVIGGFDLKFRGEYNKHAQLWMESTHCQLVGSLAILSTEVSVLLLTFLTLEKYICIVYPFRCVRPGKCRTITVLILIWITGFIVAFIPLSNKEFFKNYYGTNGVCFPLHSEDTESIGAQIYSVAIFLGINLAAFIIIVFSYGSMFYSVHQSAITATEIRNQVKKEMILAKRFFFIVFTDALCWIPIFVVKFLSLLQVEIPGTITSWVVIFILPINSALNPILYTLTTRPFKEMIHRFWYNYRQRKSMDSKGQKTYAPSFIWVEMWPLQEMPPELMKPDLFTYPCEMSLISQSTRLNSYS
NCGC Assay Protocol Summary: This is a cell-based assay for cAMP second messenger response to screen for agonists of the RXFP1 receptor. […] The cells were lysed and the cAMP levels were measured with a TR-FRET cAMP kit. […] The EC50 values were determined from concentration-response data modeled with the standard Hill equation 1536-well assay protocol for the HEK293 RXFP1 cAMP assay: (1) Add 3 ul HEK293 RXFP1 cell culture. […] (6) Detect the assay plate in a ViewLux plate reader (PerkinElmer) with Ex=320 nm, Em1=615 nm and Em2=665 nm. […]
In general terms: Quantitative high-throughput screening tests each substance at several concentrations.
Take `CN(Cc1ccco1)S(=O)(=O)c1nnc(NC(=O)c2ccccc2)s1`: the Potency entry was “active: 22.4 µM [sample A] and inactive [sample B]”.
